# Some of the results follow.
# Legend:
# Assay in all cases: glycan array binding signal (z-score within array); higher = stronger binding
# Conditions in all cases: glycan notation: IUPAC condensed, linker removed
# [1] = target: Fuc(a1-2)Gal6S(b1-3)GlcNAc
# Outline: (§1)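 Columns mapping to the same glycan were averaged after glycan names were converted to IUPAC-condensed notation. The data come from 3228 arrays in the Consortium for Functional Glycomics database, limited to those with an available protein sequence. Binding is reported as a within-array Z-score averaged across arrays of one protein sequence and across linkers.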
# [2] = target: Fuc(a1-2)Gal6S(b1-3)GlcNAc6S
# Outline: as §1
# Fuc(a1-2)Gal6S(b1-4)Glc = target: Fuc(a1-2)Gal6S(b1-4)Glc
# Outline: as §1
# [3] = target: Fuc(a1-2)Gal6S(b1-4)Glc6S
# Outline: as §1
# Fuc(a1-2)[Gal(a1-3)]Gal = target: Fuc(a1-2)[Gal(a1-3)]Gal
# Outline: as §1
# [4] = target: Fuc(a1-2)[Gal(a1-3)]Gal(b1-3)GalNAc
# Outline: as §1
# [5] = target: Fuc(a1-2)[Gal(a1-3)]Gal(b1-3)GalNAc(b1-3)Gal(a1-4)Gal(b1-4)Glc
# Outline: as §1
# [6] = target: Fuc(a1-2)[Gal(a1-3)]Gal(b1-3)GlcNAc
# Outline: as §1
# [7] = target: Fuc(a1-2)[Gal(a1-3)]Gal(b1-3)GlcNAc(b1-2)Man(a1-3)[Fuc(a1-2)[Gal(a1-3)]Gal(b1-3)GlcNAc(b1-2)Man(a1-6)]Man(b1-4)GlcNAc(b1-4)GlcNAc
# Outline: as §1
# [8] = target: Fuc(a1-2)[Gal(a1-3)]Gal(b1-3)GlcNAc(b1-2)Man(a1-3)[Fuc(a1-2)[Gal(a1-3)]Gal(b1-3)GlcNAc(b1-2)Man(a1-6)]Man(b1-4)GlcNAc(b1-4)[Fuc(a1-6)]GlcNAc
# Outline: as §1
# [9] = target: Fuc(a1-2)[Gal(a1-3)]Gal(b1-3)GlcNAc(b1-3)GalNAc
# Outline: as §1
# [10] = target: Fuc(a1-2)[Gal(a1-3)]Gal(b1-3)GlcNAc(b1-6)GalNAc
# Outline: as §1
# [11] = target: Fuc(a1-2)[Gal(a1-3)]Gal(b1-4)Glc
# Outline: as §1
# [12] = target: Fuc(a1-2)[Gal(a1-3)]Gal(b1-4)GlcNAc
# Outline: as §1
# [13] = target: Fuc(a1-2)[Gal(a1-3)]Gal(b1-4)GlcNAc(b1-2)Man
# Outline: as §1
# [14] = target: Fuc(a1-2)[Gal(a1-3)]Gal(b1-4)GlcNAc(b1-2)Man(a1-3)[Fuc(a1-2)[Gal(a1-3)]Gal(b1-4)GlcNAc(b1-2)Man(a1-6)]Man(b1-4)GlcNAc(b1-4)GlcNAc
# Outline: as §1
# [15] = target: Fuc(a1-2)[Gal(a1-3)]Gal(b1-4)GlcNAc(b1-2)Man(a1-3)[Fuc(a1-2)[Gal(a1-3)]Gal(b1-4)GlcNAc(b1-2)Man(a1-6)]Man(b1-4)GlcNAc(b1-4)[Fuc(a1-6)]GlcNAc
# Outline: as §1
# [16] = target: Fuc(a1-2)[Gal(a1-3)]Gal(b1-4)GlcNAc(b1-3)GalNAc
# Outline: as §1
# [17] = target: Fuc(a1-2)[Gal(a1-3)]Gal(b1-4)GlcNAc(b1-3)[Fuc(a1-2)[Gal(a1-3)]Gal(b1-4)GlcNAc(b1-6)]GalNAc
# Outline: as §1
# [18] = target: Fuc(a1-2)[Gal(a1-3)]Gal(b1-4)GlcNAc(b1-6)GalNAc
# Outline: as §1
# [19] = target: Fuc(a1-2)[Gal(a1-3)]Gal(b1-4)[Fuc(a1-3)]Glc
# Outline: as §1
# [20] = target: Fuc(a1-2)[Gal(a1-3)]Gal(b1-4)[Fuc(a1-3)]GlcNAc
# Outline: as §1
# [21] = target: Fuc(a1-2)[Gal(a1-3)]Gal(b1-4)[Fuc(a1-3)]GlcNAc(b1-3)GalNAc
# Outline: as §1
# [22] = target: Fuc(a1-2)[Gal(a1-4)]Gal(b1-4)GlcNAc
# Outline: as §1
# [23] = target: Fuc(a1-2)[GalNAc(a1-3)]Gal
# Outline: as §1
# [24] = target: Fuc(a1-2)[GalNAc(a1-3)]Gal(b1-3)GalNAc(a1-3)[Fuc(a1-2)]Gal(b1-4)GlcNAc
# Outline: as §1
# [25] = target: Fuc(a1-2)[GalNAc(a1-3)]Gal(b1-3)GalNAc(b1-3)Gal(a1-4)Gal(b1-4)Glc
# Outline: as §1
# [26] = target: Fuc(a1-2)[GalNAc(a1-3)]Gal(b1-3)GlcNAc
# Outline: as §1
# [27] = target: Fuc(a1-2)[GalNAc(a1-3)]Gal(b1-3)GlcNAc(b1-2)Man(a1-3)[Fuc(a1-2)[GalNAc(a1-3)]Gal(b1-3)GlcNAc(b1-2)Man(a1-6)]Man(b1-4)GlcNAc(b1-4)GlcNAc
# Outline: as §1
# [28] = target: Fuc(a1-2)[GalNAc(a1-3)]Gal(b1-3)GlcNAc(b1-2)Man(a1-3)[Fuc(a1-2)[GalNAc(a1-3)]Gal(b1-3)GlcNAc(b1-2)Man(a1-6)]Man(b1-4)GlcNAc(b1-4)[Fuc(a1-6)]GlcNAc
# Outline: as §1
# [29] = target: Fuc(a1-2)[GalNAc(a1-3)]Gal(b1-3)GlcNAc(b1-3)GalNAc
# Outline: as §1
# [30] = target: Fuc(a1-2)[GalNAc(a1-3)]Gal(b1-3)GlcNAc(b1-6)GalNAc
# Outline: as §1
# [31] = target: Fuc(a1-2)[GalNAc(a1-3)]Gal(b1-4)Glc
# Outline: as §1
# [32] = target: Fuc(a1-2)[GalNAc(a1-3)]Gal(b1-4)GlcNAc
# Outline: as §1
# [33] = target: Fuc(a1-2)[GalNAc(a1-3)]Gal(b1-4)GlcNAc(b1-2)Man
# Outline: as §1
# [34] = target: Fuc(a1-2)[GalNAc(a1-3)]Gal(b1-4)GlcNAc(b1-2)Man(a1-3)[Fuc(a1-2)[GalNAc(a1-3)]Gal(b1-4)GlcNAc(b1-2)Man(a1-6)]Man(b1-4)GlcNAc(b1-4)GlcNAc
# Outline: as §1
# [35] = target: Fuc(a1-2)[GalNAc(a1-3)]Gal(b1-4)GlcNAc(b1-2)Man(a1-3)[Fuc(a1-2)[GalNAc(a1-3)]Gal(b1-4)GlcNAc(b1-2)Man(a1-6)]Man(b1-4)GlcNAc(b1-4)[Fuc(a1-6)]GlcNAc
# Outline: as §1
# [36] = target: Fuc(a1-2)[GalNAc(a1-3)]Gal(b1-4)GlcNAc(b1-3)Gal(b1-4)GlcNAc
# Outline: as §1
# [37] = target: Fuc(a1-2)[GalNAc(a1-3)]Gal(b1-4)GlcNAc(b1-3)Gal(b1-4)GlcNAc(b1-3)Gal(b1-4)GlcNAc
# Outline: as §1
# [38] = target: Fuc(a1-2)[GalNAc(a1-3)]Gal(b1-4)GlcNAc(b1-3)GalNAc
# Outline: as §1
# [39] = target: Fuc(a1-2)[GalNAc(a1-3)]Gal(b1-4)GlcNAc(b1-3)[Fuc(a1-2)[GalNAc(a1-3)]Gal(b1-4)GlcNAc(b1-6)]GalNAc
# Outline: as §1
# [40] = target: Fuc(a1-2)[GalNAc(a1-3)]Gal(b1-4)GlcNAc(b1-6)GalNAc
# Outline: as §1
# [41] = target: Fuc(a1-2)[GalNAc(a1-3)]Gal(b1-4)[Fuc(a1-3)]GlcNAc
# Outline: as §1
# [42] = target: Fuc(a1-2)[GalNAc(a1-3)]Gal(b1-4)[Fuc(a1-3)]GlcNAc(b1-3)GalNAc
# Outline: as §1
# [43] = target: Fuc(a1-2)[GalNAc(a1-4)]Gal(b1-4)GlcNAc
# Outline: as §1
binder,measurement,setting,value
AFCNVH (Aspergillus fumigatus) (protein) MSLRGFHTTCDTIVLKDKHILSSRCKRPDGTYSFSEIDLNDCLGNNNGKFVWGGESFVDSASQVNLALEGGEGRPMLHAQLNDWHGSVQSASVNLGECIQNEAGGLEYMHC,glycan array binding signal (z-score),[1],-0.293
same,glycan array binding signal (z-score),[2],-0.146
same,glycan array binding signal (z-score),Fuc(a1-2)Gal6S(b1-4)Glc,-0.313
same,glycan array binding signal (z-score),[3],-0.428
same,glycan array binding signal (z-score),Fuc(a1-2)[Gal(a1-3)]Gal,-0.411
same,glycan array binding signal (z-score),[4],-0.401
same,glycan array binding signal (z-score),[5],-0.167
same,glycan array binding signal (z-score),[6],-0.443
same,glycan array binding signal (z-score),[7],-0.504
same,glycan array binding signal (z-score),[8],-0.326
same,glycan array binding signal (z-score),[9],-0.292
same,glycan array binding signal (z-score),[10],-0.361
same,glycan array binding signal (z-score),[11],-0.345
same,glycan array binding signal (z-score),[12],0.329
same,glycan array binding signal (z-score),[13],-0.444
same,glycan array binding signal (z-score),[14],-0.442
same,glycan array binding signal (z-score),[15],-0.237
same,glycan array binding signal (z-score),[16],-0.33
same,glycan array binding signal (z-score),[17],-0.536
same,glycan array binding signal (z-score),[18],-0.48
same,glycan array binding signal (z-score),[19],-0.455
same,glycan array binding signal (z-score),[20],-0.196
same,glycan array binding signal (z-score),[21],-0.388
same,glycan array binding signal (z-score),[22],0.231
same,glycan array binding signal (z-score),[23],0.454
same,glycan array binding signal (z-score),[24],1.05
same,glycan array binding signal (z-score),[25],-0.408
same,glycan array binding signal (z-score),[26],-0.23
same,glycan array binding signal (z-score),[27],-0.535
same,glycan array binding signal (z-score),[28],-0.277
same,glycan array binding signal (z-score),[29],-0.328
same,glycan array binding signal (z-score),[30],-0.591
same,glycan array binding signal (z-score),[31],-0.022
same,glycan array binding signal (z-score),[32],1.16
same,glycan array binding signal (z-score),[33],-0.458
same,glycan array binding signal (z-score),[34],0.627
same,glycan array binding signal (z-score),[35],-0.346
same,glycan array binding signal (z-score),[36],1.86
same,glycan array binding signal (z-score),[37],0.21
same,glycan array binding signal (z-score),[38],-0.472
same,glycan array binding signal (z-score),[39],-0.285
same,glycan array binding signal (z-score),[40],0.403
same,glycan array binding signal (z-score),[41],-0.375
same,glycan array binding signal (z-score),[42],-0.186
same,glycan array binding signal (z-score),[43],3.32

# — the supplement of paper PMC8728848
